According to PMC4336329 (PLoS ONE, 2015):
Out of some 310,000 compounds screened, about 2,200 (0.71%) showed an effect of 50% or more. The effect is printed as a negative number. This is one part of the list.

Molecular target: human ether-à-go-go-related gene (hERG) potassium channel (human, UniProt Q12809)
Assay: primary screen, population patch clamp on CHO cells stably expressing hERG

Sequence of human ether-à-go-go-related gene (hERG) potassium channel (Q12809 whole entry, looked up): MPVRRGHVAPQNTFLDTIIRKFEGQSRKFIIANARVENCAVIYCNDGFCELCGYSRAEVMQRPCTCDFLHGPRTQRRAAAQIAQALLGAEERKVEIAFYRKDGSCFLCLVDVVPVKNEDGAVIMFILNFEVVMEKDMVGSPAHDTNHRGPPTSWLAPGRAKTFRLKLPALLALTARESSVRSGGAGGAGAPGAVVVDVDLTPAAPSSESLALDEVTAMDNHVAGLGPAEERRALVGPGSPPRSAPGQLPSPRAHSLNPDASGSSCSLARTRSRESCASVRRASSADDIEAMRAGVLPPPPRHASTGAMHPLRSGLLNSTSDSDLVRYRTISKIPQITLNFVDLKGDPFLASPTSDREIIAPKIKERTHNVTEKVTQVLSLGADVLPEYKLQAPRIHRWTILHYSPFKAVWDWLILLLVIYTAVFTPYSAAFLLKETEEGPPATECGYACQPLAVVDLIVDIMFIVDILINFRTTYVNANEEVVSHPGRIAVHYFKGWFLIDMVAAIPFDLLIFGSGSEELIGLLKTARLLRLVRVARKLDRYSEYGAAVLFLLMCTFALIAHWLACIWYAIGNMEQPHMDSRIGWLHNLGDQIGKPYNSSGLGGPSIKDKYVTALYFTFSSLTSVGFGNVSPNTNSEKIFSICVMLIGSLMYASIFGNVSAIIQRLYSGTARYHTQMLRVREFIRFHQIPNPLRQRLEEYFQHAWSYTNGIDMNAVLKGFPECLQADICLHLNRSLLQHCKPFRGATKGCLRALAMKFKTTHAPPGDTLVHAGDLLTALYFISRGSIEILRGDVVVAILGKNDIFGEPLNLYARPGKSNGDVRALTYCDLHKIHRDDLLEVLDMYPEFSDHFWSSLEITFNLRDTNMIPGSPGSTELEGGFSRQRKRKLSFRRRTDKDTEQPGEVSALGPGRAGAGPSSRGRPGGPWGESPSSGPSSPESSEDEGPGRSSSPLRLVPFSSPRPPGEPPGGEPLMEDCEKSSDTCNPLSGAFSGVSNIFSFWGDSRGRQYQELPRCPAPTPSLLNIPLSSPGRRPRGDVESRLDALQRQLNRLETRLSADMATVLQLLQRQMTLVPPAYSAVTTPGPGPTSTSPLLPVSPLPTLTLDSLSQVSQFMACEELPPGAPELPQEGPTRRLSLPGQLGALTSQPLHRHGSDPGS

Row | Compound | hERG current change (%, negative = inhibition) at 1uM [%]
1 | CCc1nc(NCCO)c(C#N)c2c1CSC(C)(C)C2 | 17.2
2 | COc1ccccc1-n1c(CNC(=O)c2ccc(S(=O)(=O)N3CCOCC3)cc2)n[nH]c1=S | 7.16
3 | O=S(=O)(Nc1nc2ccccc2s1)c1ccc(Br)s1 | 9.8
4 | CCCS(=O)(=O)Nc1c(C(=O)OC)[nH]c2ccccc12 | 0.77
5 | COc1cccc(/C=N/NC(=O)CN2CC(c3ccccc3)CC2=O)c1O (stereo not drawn) | 11.6
6 | COc1cc2c(cc1OC)-c1cc(Nc3cccc(C)c3)nc(=O)n1CC2 | -19.5
7 | COc1ccc(NC(=O)CN2CCN(C(=O)C3CCCO3)CC2)c(OC)c1 (stereo not drawn) | -18.5
8 | CN(C)S(=O)(=O)c1ccc(Cl)c(NC(=O)CN2CCN(Cc3ccc4c(c3)OCO4)CC2)c1 | -12.1
9 | COc1cc(CC(=O)NCC(C)(C)N2CCOCC2)cc(OC)c1OC | 13.5
10 | Cc1ccc(NC(=O)Cn2nnc(C(=O)NCc3ccccc3)c2N)cc1C | 14.1
11 | O=S(=O)(Nc1ccc(Cl)cc1)c1ccc(N2CCOCC2)c(NC(=S)NCCN2CCOCC2)c1 | 13.1
12 | COC(=O)C(C)Sc1nc2c(c(=O)n(C)c(=O)n2C)n1CCC(C)C (stereo not drawn) | -4.09
13 | O=C(COc1ncnc2scc(-c3ccc(Cl)cc3)c12)NCc1ccco1 | 6.41
14 | C/C(=N\OC(=O)Nc1ccccc1)c1ccc(C)cc1 | 5.77
15 | CCN1CCN(c2cc(C)c3cc(NC(=S)N4CCN(c5ccccc5)CC4)ccc3n2)CC1 | 8.98
16 | Cc1[nH]c2ccccc2c1C(=O)C(=O)N(C)C1CCCCC1 | 7.11
17 | O=C(c1ccccc1)c1cccn1CC(=O)N1CCCCCC1 | 9.43
18 | CCc1ccc(-c2nc(CN3CCC(C(=O)NCc4ccc(F)cc4)CC3)c(C)o2)cc1 | -12.4
19 | CCOCc1cnc(C)nc1NCC(=O)c1c(C)[nH]c2cc(C)ccc12 | 1.62
20 | COc1ccc(NC(=O)CN(C)C(=O)CCCN2C(=O)c3cccc4cccc(c34)C2=O)cc1 | -6.84
21 | COc1ccc(NC(=O)c2ccc([N+](=O)[O-])s2)c([N+](=O)[O-])c1 | 6.23
22 | O=C(CC1NCCc2ccccc21)Nc1ccccc1 (stereo not drawn) | 4.29
23 | CN1C(=O)c2cccc3c(S(N)(=O)=O)ccc1c23 | 8.38
24 | N#CCSc1nnc(Cc2cccc3ccccc23)n1C1CCCCC1 | 9.65
25 | Cc1ccc(NC(=O)Nc2ccno2)cc1 | 13.7
26 | CCn1cc(C(=O)NCCCN2CCCC(C)C2)c(=O)c2cc(S(=O)(=O)N3CCOCC3)ccc21 (stereo not drawn) | 16.1
27 | COC(=O)Cn1c(CCS(=O)(=O)c2ccc(Cl)cc2)nc2ccccc21 | 13.7

Row | Compound | hERG current change (%, negative = inhibition) at 1uM [%]
28 | S=C(NCc1cccs1)Nc1cccc2ccccc12 | 3.28
29 | Cc1[nH+]csc1CCOC(=O)C1C2CC3CC(C2)CC1C3.[Cl-] (stereo not drawn) | 7.6
30 | CCOC(=O)c1cc2c(C)n(-c3ccc(N(C)C)cc3)c(C)c2cc(C(=O)OCC)c1=O | 12.6
31 | CCCCC(=O)Nc1ccccc1Oc1ccccc1 | 21
32 | COC(=O)c1sc(N(C)C)c(C#N)c1-c1ccccc1 | 15.2
33 | O=C(CCc1ccc(S(=O)(=O)NCc2ccccc2)cc1)NCc1ccc2c(c1)OCO2 | -4.65
34 | CCCSc1nc2sc3c(c2c(=O)[nH]1)CC(C)CC3 (stereo not drawn) | 15.7
35 | COc1ccccc1/C=C/C=N/NC(=O)c1cc(-c2ccc(C)o2)[nH]n1 | 9.48
36 | CCn1c(C)nnc1SCC(=O)Nc1ccc(C(C)=O)cc1 | 11.1
37 | O=C(CCN1CCOCC1)NNC(=O)Nc1cccc([N+](=O)[O-])c1 | 11.2
38 | COc1cccc(NC(=O)C2CCCC2)c1 | 14.4
39 | Cc1nn(Cc2ccccc2Cl)c(C)c1NC(=O)c1noc(C(C)C)c1[N+](=O)[O-] | 10.1
40 | CCN(CC(=O)NCc1ccc(Cl)cc1)C(=O)CSc1ccccc1F | 5.91
41 | COc1ccc(OC)c(/C(O)=C/C(=O)C(=O)Nc2ccccc2OC)c1 | 5.52
42 | CN(C(=O)c1ccc(NC(=O)Cc2cccc(NC(=O)C3CCN(C(=O)C4CC4)CC3)c2)cc1)C1CCCC1 | 18.3
43 | O=C(Nc1ccc(NC(=S)NC(=O)C(c2ccccc2)c2ccccc2)cc1)c1ccccc1 | 2.03
44 | CSc1ncc(C(=O)Nc2ccc(C)cc2C)c(C)n1 | 23
45 | Cn1nc(C(=O)OCC(=O)NC2CCS(=O)(=O)C2)c2ccccc2c1=O (stereo not drawn) | -0.731
46 | COc1ccc(CCN(C)C(=O)c2cccc(S(=O)(=O)NCc3ccccc3)c2)cc1OC | -1.14
47 | COc1cc(-n2c(=O)c3ccccc3n(Cc3cccc(C)c3)c2=O)cc(OC)c1OC | 7.91
48 | CN1CCN(S(=O)(=O)c2cccc(C(=O)Nc3cc(C(F)(F)F)ccc3N3CCCC3)c2)CC1 | 4.44
49 | COc1ccc(CCNC(=O)C2CCN(S(=O)(=O)c3ccc(C)cc3)CC2)cc1OC | 11.8
50 | CCOC(=O)Nc1ccc2c(c1)N(C(=O)CCN1CCN(C)CC1)c1ccccc1S2.Cl | 0.42
51 | CC(C)(C)OC(=O)N1CCC(C(=O)N[C@@H](Cc2ccccc2)C(=O)O)(c2ccccc2)CC1 | 2.95
52 | O=c1[nH]c(=O)n(Cc2ccco2)c2c1C(C(F)(F)F)(C(F)(F)F)N=C(CCc1ccccc1)N2 | 7.65
53 | CCN1CCN(C(c2cccc(OC)c2OC)c2nnnn2Cc2ccco2)CC1.Cl (stereo not drawn) | 4.69
54 | Cc1cc(NC(=O)COC(=O)c2cc(S(=O)(=O)N(C)C)ccc2Cl)no1 | 9.45
